In all, about 200,000 compounds went through this assay and about 10 (0.005%) were called active. The shares of active, inactive and inconclusive entries below differ from those in the screen. The call rests on the fitted dose curve; in most records, active means well fitted inhibition curve with a large enough effect; inconclusive means small, poorly fitted or top-dose-only effect, or effect the other way, or another doubt; inactive means no such curve, though single readings can be large or run the other way. Potencies of inconclusive entries are left out as doubtful fits.
The compounds below were run against Lysosomal alpha-glucosidase (Homo sapiens) (UniProt P10253) (assay: qHTS Assay for Inhibitors of Human alpha-Glucosidase as a Potential Chaperone Treatment of Pompe Disease). Details: purified human GAA, 4-MU-alpha-glucoside fluorescence; activity change, negative = inhibition: at 76.9 µM (top of the series) unless noted.
Method in brief: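 Human enzyme at 4 nM with 400 uM 4-methylumbelliferyl-alpha-D-pyranoside, citrate/phosphate buffer pH 5.0, 0.005% Tween-20, 20 min at room temperature. Compounds up to 77 uM. 4-MU fluorescence (Ex 365/Em 440) read after NaOH/glycine stop; AC50 from Hill fit.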
In the case of `N#CC12CCCCC1CC1CCCCC1(C#N)N2CCO` (centres undefined), the activity change, negative = inhibition was inconclusive: -22.7% [inhibitor].
With `COc1ccc(NC(=O)C(=O)NCC(=O)Nc2cccc(C(F)(F)F)c2)cc1` the Potency was inconclusive [inhibitor, full curve].
`Cc1cc(C)nc(SCC(=O)Nc2ccc(Br)cn2)n1` was tested, and the Potency was inconclusive [inhibitor, single point].
In the case of `CCOc1cc(NC(=O)c2ccccn2)c(OCC)cc1NC(=O)c1ccc(C)cc1`, the activity change, negative = inhibition was inconclusive: 19.3% [activator].
With `COc1ccc(NC(=O)c2ccc(F)cc2)cc1S(=O)(=O)Nc1cc(C)ccc1Br` the Potency was inconclusive [inhibitor, full curve].
In the case of `COc1ccc(-c2cc(-c3ccc(N)cc3)nc(N)c2C#N)cc1OC`, the Potency was inconclusive [activator, partial curve].
`CCOC(=O)c1c(C)nc(C)c(C(=O)OCC)c1-c1cccc(N)c1` was tested, and the activity change, negative = inhibition was inconclusive: 16.6% [activator].
For `Cc1ccccc1N=C1NC(=O)CS1`, the “activity change, negative = inhibition” value was inactive: 1.93%.
In the case of `C#CCN1C(=O)C(O)(CC(=O)/C=C/c2ccco2)c2ccccc21` (centres undefined), the activity change, negative = inhibition was inconclusive: 3.86% [activator].
With `CC(C)(C)NC(=O)N1CCN(c2ncccc2C(F)(F)F)CC1` the Potency was inconclusive [inhibitor, single point].
With `CCn1nc(C(=O)Nc2ccc(S(=O)(=O)Nc3ncccn3)cc2)c2ccccc2c1=O` the Potency was inconclusive [inhibitor, full curve].
With `CCOC(=O)N1CCN(C(=O)c2cc3c(s2)-c2ccccc2OC3)CC1` the Potency was inconclusive [activator, partial curve].
For `Cc1cc(-n2c(C)cc(C(=O)COc3ccc4ccc(=O)oc4c3)c2C)no1`, the Potency was inconclusive [activator, partial curve].
`O=c1[nH]c(=O)n(C(c2ccccc2)c2ccccc2)cc1Br` was tested, and the Potency was inconclusive [inhibitor, single point].
`CSc1nnc(-c2cc3c(s2)-c2ccccc2CC3)o1` was tested, and the Potency was inconclusive [activator, partial curve].
`CCOC(=O)c1sc(NC(=O)c2ccc(C)s2)cc1C` was tested, and the activity change, negative = inhibition was inconclusive: 18.5% [activator].
For `O=C(NCCCN1CCOCC1)C(=O)N/N=C/c1c(Cl)cccc1Cl`, the activity change, negative = inhibition was inconclusive: 19.9% [activator].
In the case of `CN1CCCc2cc(C#N)c(=O)[nH]c21`, the Potency was inconclusive [activator, partial curve].
For `Clc1ccc(OCCCc2nc(-c3cccnc3)no2)c(Cl)c1`, the activity change, negative = inhibition was inconclusive: -16.9% [inhibitor].
With `CC(=O)Nc1ccc(NC(=O)CN(c2ccccc2Cl)S(C)(=O)=O)cc1` the “activity change, negative = inhibition” value was inactive: -13%.
For `CCCC(CCC)=NNc1ccc(S(=O)(=O)Nc2ccccc2OC)cc1[N+](=O)[O-]`, the Potency was inconclusive [inhibitor, single point].
With `C#CCOCCOCCOCCNc1nc(N2CCN(C(=O)[C@H](Cc3ccc(O)cc3)n3cc(CCO)nn3)CC2)nc(N2CCN(C(=O)[C@H](Cc3ccc(O)cc3)n3cc(CCO)nn3)CC2)n1` the Potency was inconclusive [inhibitor, full curve, poor fit].
`Cc1ccc(CNC(=O)CCc2ccc(S(=O)(=O)NCC(C)C)cc2)cc1` was tested, and the activity change, negative = inhibition was inconclusive: 15.3% [activator].
`N#CC1=C(SCC(=O)c2cc3ccccc3oc2=O)NC(=O)C(C#N)C12CCCC2` (centres undefined) was tested, and the “activity change, negative = inhibition” value was inactive: -9.38%.
For `CCOc1ccc(CCNC(=O)CCC(=O)Nc2ccc3nc(N4CCN(C)CC4)cc(C)c3c2)cc1OCC`, the Potency was inconclusive [activator, partial curve].
For `CN(c1nc2c(c(=O)n(C)c(=O)n2C)n1CC(=O)c1ccccc1)C1CCCCC1`, the Potency was inconclusive [inhibitor, single point].
With `Cc1cc(C)[n+](-c2ccc(F)cc2)c2[nH]c(=O)[nH]c(=O)c12` the Potency was inconclusive [activator, partial curve].
In the case of `CS(=O)(=O)N(CC(=O)Nc1ccccc1C(=O)NCc1ccco1)c1ccc2c(c1)OCCO2`, the Potency was inconclusive [inhibitor, full curve].
For `CCOc1ccc(Cc2nnc(N)s2)cc1OCC`, the activity change, negative = inhibition was inconclusive: -17.3% [inhibitor].
For `O=C(COc1ccc(Cl)cc1Cl)NNC(=S)NCc1ccco1`, the activity change, negative = inhibition was inconclusive: 16.2% [activator].
`Cc1ccc(-n2nc(C)c3c2OC(N)=C(C#N)C3c2ccoc2)cc1` (centres undefined) was tested, and the “activity change, negative = inhibition” value was inactive: -3.83%.
In the case of `CCOC(=O)c1[nH]c(C)c(C(=O)Nc2ccc(C)cc2C)c1C`, the Potency was inconclusive [inhibitor, single point].
With `CC(NC(=O)c1ccc(Br)cc1)c1ccc2c(c1)CCCC2` (centres undefined) the Potency was inconclusive [inhibitor, single point].
In the case of `O=C(Cc1ccccc1)N1CCC(c2nc3ccccc3[nH]2)CC1`, the activity change, negative = inhibition was inconclusive: -15.5% [inhibitor].
For `CCOc1ccc(C(=O)N2CCN(c3cccc(C)c3C)CC2)cc1`, the “activity change, negative = inhibition” value was inactive: -2.69%.
In the case of `Cc1ccc(C(=O)NCC(=O)OCC(=O)Nc2cc(C)c(C)cc2[N+](=O)[O-])cc1`, the Potency was inconclusive [inhibitor, single point].
For `O=C(Nc1cccc(S(=O)(=O)N2CCOCC2)c1)c1ccc(N2CCOCC2)c([N+](=O)[O-])c1`, the Potency was inconclusive [inhibitor, full curve, poor fit].
With `O=c1cc2c(=O)oc3cc(O)c(O)oc3c2c(O)c1O` the “activity change, negative = inhibition” value was inactive: -3.14%.
`CN1CCc2c(sc(NC(=O)c3cc4cc([N+](=O)[O-])ccc4s3)c2C(N)=O)C1` was tested, and the Potency was inconclusive [inhibitor, partial curve].
`COc1ccc2c(c1)CCCC21NC(=O)N(CC(=O)NC(=O)NCc2ccccc2)C1=O` (centres undefined) was tested, and the Potency was inconclusive [inhibitor, partial curve, poor fit].
With `O=C(Cc1coc2cc3c(cc12)CCC3)OCc1cc(=O)n2c(n1)sc1ccccc12` the activity change, negative = inhibition was inconclusive: -17.7% [inhibitor].
With `COCCn1c(C(C)C)nc2sc3ccccc3c(=O)c2c1=O` the activity change, negative = inhibition was inconclusive: 2.05% [activator].
With `O=C(Cc1ccc(S(=O)(=O)N2CCOCC2)s1)Nc1ccc2c(c1)CCC2` the Potency was inconclusive [inhibitor, partial curve, poor fit].
`O=C(/C=C/c1ccco1)N/C(=C\c1ccco1)C(=O)NCCc1nc2ccccc2[nH]1` was tested, and the Potency was inconclusive [inhibitor, single point].
In the case of `Cc1nn(-c2ccccc2)c(C)c1/C=N/N1CCN(c2ccccc2)CC1`, the Potency was inconclusive [inhibitor, single point].
`Cc1c(C(=O)NCc2ccccn2)oc2ccc(S(=O)(=O)N3CCC4(CC3)OCCO4)cc12` was tested, and the Potency was inconclusive [inhibitor, single point].
For `O=C(Nc1ccc(O)c(-c2nc3ccccc3s2)c1)c1cccs1`, the Potency was inconclusive [activator, single point].
`O=C(/C=C/c1ccccc1)N/C(=C/c1ccccc1)C(=O)Nc1ccc(C(=O)O)cc1` was tested, and the activity change, negative = inhibition was inconclusive: 17.3% [activator].
`COc1ccc(-c2n[nH]c(C)c2-c2cnn(-c3ccccc3)c2)c(O)c1` was tested, and the Potency was inconclusive [inhibitor, full curve, poor fit].
In the case of `O=[N+]([O-])c1cc(S(=O)(=O)NC2=NCCCCC2)ccc1NCC1CCCCC1`, the activity change, negative = inhibition was inconclusive: -19.5% [inhibitor].
`O=C(NC1CCCCC1)C(c1ccc2ncccc2c1)N(Cc1ccccc1)C(=O)c1ccc2c(c1)OCCO2` (centres undefined) was tested, and the Potency was inconclusive [inhibitor, full curve, poor fit].
For `CCOC(=O)CSc1nnc(-c2ccncc2)o1`, the Potency was inconclusive [inhibitor, single point].
For `COc1ccc(OCc2nnnn2-c2ccccc2)cc1`, the activity change, negative = inhibition was inconclusive: -15.1% [inhibitor].
`CC(C)Cn1nc(NC(=O)C2CCCO2)c2cc3ccccc3nc21` (centres undefined) was tested, and the Potency was inconclusive [inhibitor, single point].
For `COc1ccc(N=Cc2sc(O)c3ccccc23)cc1`, the “activity change, negative = inhibition” value was inactive: -10.9%.
With `CCOc1ccccc1NC(=O)C(NCC1(N2CCCCC2)CCCCC1)c1ccccc1` (centres undefined) the Potency was inconclusive [inhibitor, single point].
With `N=c1oc2cc(O)ccc2cc1C(=O)Nc1nc2ccccc2s1` the Potency was inconclusive [activator, partial curve].
In the case of `O=C(OCCNc1nc(-c2ccccc2)nc2ccccc12)c1cccnc1`, the Potency was inconclusive [inhibitor, partial curve, poor fit].
In the case of `CCOc1ccc(C(=O)Nc2cc(NC(=O)c3ccc(OCC)c(Cl)c3)cc(C(=O)O)c2)cc1Cl`, the Potency was inconclusive [inhibitor, single point].
`COc1ccc(-c2cc(C(F)(F)F)nc(SCC(=O)Nc3cc(C)on3)n2)cc1OC` was tested, and the Potency was inconclusive [activator, single point].
`C=C(C)Cn1c(SCCCO)nc2c1c(=O)[nH]c(=O)n2C` was tested, and the Potency was inconclusive [inhibitor, single point].
With `COc1ccc(C2=NN(C(=O)CCC(=O)O)C(c3cccs3)C2)cc1OC` (centres undefined) the activity change, negative = inhibition was inconclusive: 21.8% [activator].
For `Cc1cccc(NC(=O)C(=O)NCc2ccc3c(c2)OCO3)c1C`, the activity change, negative = inhibition was inconclusive: 21.7% [activator].
With `N#C/C(=C\c1ccncc1)c1nc2c(s1)CCCC2` the Potency was inconclusive [activator, partial curve].

Source: PubChem BioAssay AID1466 (National Center for Advancing Translational Sciences (NCATS), 2008)
Potency means the concentration at half of the fitted maximal effect; tags describe the fitted curve by direction and shape.
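Wherever activity change, negative = inhibition is given: plate controls were uninhibited enzyme wells for no effect and no-enzyme background for full effect.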
